# Assay results reported in PubChem BioAssay AID1508642 (National Center for Advancing Translational Sciences (NCATS), 2021).
# In all, about 43,000 compounds went through this assay and about 200 (0.47%) were called active. Roughly 12% stayed inconclusive and do not appear here. Calls follow the shape of the dose curve; as a rule, active = well fitted cell-killing curve with a large enough effect; inconclusive = small, poorly fitted or top-dose-only effect, or effect the other way; inactive = flat fitted curve, though single readings scatter. The list shows a part of the results.
# Assay: Cell viability qHTS assay in S16 Pmp22-F2sN cells; also: nearly all actives have a fitted effect of over 65% in size
# Settings: S16 Pmp22-F2sN Schwann cells (luciferase reporters placed in the Pmp22 gene) viability, CellTiter-Glo, 24 h; series mostly up to 57.5 µM; activity change, negative = cytotoxicity: at the top concentration
# Method in brief: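 Seed 500-1,000 S16 Pmp22-F2sN cells per well in phenol-red-free DMEM with 10% heat-inactivated FBS; pin-add 23 nL compound; incubate 24 h at 37C; add CellTiter-Glo, wait 15 min protected from light; read luminescence.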
# % is scaled to controls: 0 for no effect and ±100 for the full control effect.
row,Compound,"activity change, negative = cytotoxicity"
1,CCOC(=O)c1c(NC(=O)c2ccccc2Cl)sc2c1CCCC2,inactive: -6.58%
2,COCCNC(=O)c1c(C)oc2nc(C)nc(N3CCOCC3)c12,inactive: 2.08%
3,Cc1ccc2c(c1)NC(c1cccnc1)=NC(c1ccc(F)cc1)=N2,inactive: 3.04%
4,Cc1ccc(-c2nnc(SCc3ccccc3C#N)o2)cc1,inactive: 1.9%
5,COc1cccc(-c2nc(CS(=O)(=O)CC(=O)NCc3ccc(C)cc3)c(C)o2)c1,inactive: -14.5%
6,Cc1ccc(CN2C(=O)C(O)(c3c[nH]c4ccccc34)c3cc(Cl)ccc32)cc1 (stereo unspecified),inactive: -1.34%
7,O=[N+]([O-])c1cc(-c2nc(-c3ccccc3)no2)ccc1N1CCN(c2ccccc2)CC1,inactive: 2.7%
8,Cc1ccc(CNC(=O)C2CCN(c3nc4ccccc4n(C)c3=O)CC2)cc1,inactive: -1.08%
9,CCOC(=O)CSc1nc2c(sc3ccccc32)c(=O)n1CCc1ccccc1,inactive: 13.6%
10,Cn1cc(S(=O)(=O)N2CCCCCC2)cc1C(=O)N1CCN(c2cccc(Cl)c2)CC1,inactive: 8.15%
11,Cc1cccc(C)c1NC(=O)Cn1c(=O)n(CC2CCC(C(=O)NCCc3ccccc3)CC2)c(=O)c2ccccc21 (stereo unspecified),inactive: 2.8%
12,CCOC(=O)C1CCN(C(=O)C2CCN(C3=NS(=O)(=O)C(c4ccc(C)cc4)=C3CC)CC2)CC1,inactive: 8.49%
13,Cc1ccc(NC(=O)Cn2nnc(-c3nc(-c4ccncc4)no3)c2N)cc1,inactive: -0.651%
14,CCCOc1ccc(CNC(=O)C(CC)n2nc(C)c3sc4ccccc4c3c2=O)cc1 (stereo unspecified),inactive: 7.02%
15,CCOc1ccc2nc(C)cc(Nc3ccccc3OCC)c2c1,inactive: -13.3%
16,Cc1ccc(C(=O)O)cc1Nc1nc2ccccc2n2nnnc12,inactive: 0.631%
17,COc1ccc(-c2cc3ccc(O)c(CN4CCOCC4)c3oc2=O)cc1,inactive: 4.02%
18,CC(=O)N1CCc2cc(Br)cc(S(=O)(=O)N3CCC(C(=O)N(C)c4cc(C)ccc4C)CC3)c21,inactive: 4.74%
19,COc1cc(NC(=O)c2ccccc2)ccc1NC(=O)c1cc2ccccc2o1,inactive: 19.3%
20,Cc1cccc(NC(=O)CSc2nc(-c3ccco3)nc3cc(=O)[nH]n23)c1,inactive: -23.9%
21,CCn1cc(C(=O)N2CCN(c3ccccc3F)CC2)c(=O)c2cc(S(=O)(=O)N(C)C3CCCCC3)ccc21,inactive: -7.9%
22,CCOC(=O)c1c(C)oc2nc(C)nc(NCc3ccc(Cl)cc3)c12,inactive: 1.4%
23,O=C(CCn1c(=O)c2ccccc2n(Cc2ccc(F)cc2Cl)c1=O)NCc1ccc2c(c1)OCO2,inactive: 1.64%
24,CCc1ccc(NC(=O)C2CCN(S(=O)(=O)c3ccc4[nH]c5c(c4c3)CCCCC5)CC2)cc1,inactive: -0.972%

row,Compound,"activity change, negative = cytotoxicity"
1,COc1ccc(-c2ccc3c(N)c(C(=O)NCc4ccc(Cl)cc4)sc3n2)cc1,inactive: 3.85%
2,COC(=O)c1c(SC)nc2ccccc2c1OCc1ccccc1C,inactive: 6.59%
3,O=C(CSc1nc2c(oc3ccccc32)c(=O)n1-c1ccccc1F)Nc1ccccc1,inactive: -1.91%
4,CCOC(=O)c1c(S(=O)(=O)N2CCCC(C(=O)N3CCN(c4cccc(C)c4C)CC3)C2)c(C)n(C)c1C (stereo unspecified),inactive: -20.6%
5,O=C(CN1C(=O)COc2ccc(S(=O)(=O)N3CCOCC3)cc21)NCc1ccc(F)cc1,inactive: 17.3%
6,CCOc1cc(S(=O)(=O)n2ccnc2C(C)C)ccc1Cl,inactive: -2.91%
7,CC(C)CN1CCc2nc(N3CCN(C)CC3)ncc2C1,inactive: -0.311%
8,Cn1c(=O)cc(SCC(=O)N2CCN(c3ccc(F)cc3)CC2)c2ccc(Cl)cc21,inactive: 6.17%
9,Cc1ccc(Nc2c3c(nc4nncn24)CCC3)cc1C,inactive: -0.635%
10,CCCCC(CC)CNC(=O)C1CCN(S(=O)(=O)c2cccc3nsnc23)CC1 (stereo unspecified),inactive: -1.95%
11,Cc1ccccc1NC(=O)CCn1cnc2onc(-c3ccc(F)cc3)c2c1=O,inactive: -26%
12,CCC(C)(C)C1CCc2c(sc(NC(=O)C3c4ccccc4Oc4ccccc43)c2C(N)=O)C1 (stereo unspecified),inactive: 15.5%
13,O=S(=O)(c1ccccc1)c1nc(-c2cccs2)oc1SCc1ccccc1F,inactive: -0.231%
14,Cc1ccc(NS(=O)(=O)c2c(C(=O)N3CCC(C)CC3)c(C)n(C)c2C)cc1Cl,inactive: -11.2%
15,N#Cc1nc(-c2ccc(COc3ccc(Cl)cc3)o2)oc1N1CCN(c2ccccc2)CC1,inactive: 2.73%
16,CCOc1ccc(NC(=O)CCn2cnc3onc(-c4ccc(F)cc4)c3c2=O)cc1,inactive: 10.6%
17,O=C(CSc1nccn1-c1ccc(F)cc1)Nc1ccc(OC(F)(F)F)cc1,inactive: -9.66%
18,CCOC(=O)c1c(-c2ccc(Br)cc2)csc1NC(=O)c1ccccc1F,inactive: -5.05%
19,CCN(CC)C(=O)Cn1c(=O)n(Cc2ccc(C(=O)NCc3ccccc3Cl)cc2)c(=O)c2ccccc21,inactive: 12.6%
20,Cc1ccc2c(C)c(C(=O)N(Cc3ccc(Cl)cc3)C3CCS(=O)(=O)C3)oc2c1 (stereo unspecified),inactive: -0.166%
21,O=C1CN(C(=O)c2ccccc2C(F)(F)F)C(c2ccccc2)c2cc(F)ccc2N1 (stereo unspecified),inactive: -9.35%
22,O=C1[C@@H]2CSC(c3ccc(C(F)(F)F)cc3)N2C(=O)N1c1ccccc1 (stereo partly specified),inactive: 0.425%
23,CCCNc1c(NC(=O)c2ccc(OCCC)cc2)c(=O)oc2ccccc12,inactive: -0.316%
24,CCOC(=O)c1c(NC(=O)c2nc(SC(C)C)ncc2Cl)sc2c1CCCC2,inactive: 17.4%

row,Compound,"activity change, negative = cytotoxicity"
1,Cn1c(SCc2ccc(C(F)(F)F)cc2)nc2c([nH]c3ccccc32)c1=O,inactive: 0.658%
2,O=c1cc(N2CCN(c3ccc(F)cc3)CC2)[nH]c(=O)n1-c1ccc(Br)cc1,inactive: -3.82%
3,Cc1ccccc1Cn1c(=O)n(Cc2ccc(Cl)cc2)c(=O)c2cccnc21,inactive: 3.11%
4,COc1ccc(OC)c(NC(=O)CSC2=Nc3ccccc3C3=NC(CC(=O)NCc4ccc5c(c4)OCO5)C(=O)N23)c1 (stereo unspecified),inactive: -6.87%
5,COc1cc(Cl)c(C)cc1NC(=O)c1sc2nc3n(c(=O)c2c1C)CCCCC3,inactive: 2.91%
6,CC(=O)c1c(C)oc2c(Cl)cc(NS(=O)(=O)c3ccc(Cl)cc3)cc12,inactive: 25.9%
7,CN(C)c1ccc(C(CNS(=O)(=O)c2ccccc2)N2CCc3ccccc32)cc1 (stereo unspecified),inactive: -2.03%
8,CCn1cc(S(=O)(=O)c2cc(C)cc(C)c2)c(=O)c2cc(F)c(N3CCCC3)cc21,inactive: 0.998%
9,COc1ccc(N2CCN(S(=O)(=O)CCNC(=O)Cc3ccc(Cl)cc3)CC2)cc1,inactive: 2.38%
10,CCOc1ccc(CCNC(=O)c2nnc(Cc3cc(OC)c(OC)c(OC)c3)o2)cc1OCC,inactive: -4.34%
11,COc1ccc(CCNC(=O)C2(c3cccs3)CCOCC2)cc1OC,inactive: 3.61%
12,CCCOc1cccc(C(=O)Nc2cccc(NC(=O)c3ccc(C(C)(C)C)cc3)c2)c1,inactive: -0.402%
13,COc1cc(OC)cc(C(=O)Nc2ccccc2-c2nc3ccccc3s2)c1,inactive: -2.84%
14,COc1ccc2[nH]c(C)c(CCNS(=O)(=O)c3cc(F)ccc3OC)c2c1,inactive: 8.68%
15,COc1cc(-c2ccno2)ccc1S(=O)(=O)N1CCN(c2ccc(C(C)=O)cc2)CC1,inactive: -20.8%
16,COc1ccc(-c2cc(C(F)(F)F)n3nc(C(=O)Nc4cc(Cl)cc(Cl)c4)cc3n2)cc1,inactive: 7.22%
17,CCCCC(=O)Nc1ccccc1C(=O)OCc1cc(=O)n2nc(C3CCCCC3)sc2n1,inactive: -2.16%
18,COc1ccc(-c2nc3c4ccccc4n(CC(=O)Nc4cc(F)ccc4F)c(=O)n3n2)cc1,inactive: 11.8%
19,CCOc1ccc(OC(=O)c2cn(-c3ccc(C)cc3)c(=O)c3ccccc23)cc1,inactive: 3.55%
20,Cc1cc(C)c(NC(=O)C(C)n2nc(-c3ccc(C)c(C)c3)ccc2=O)c(C)c1 (stereo unspecified),inactive: 4.99%
21,Cc1cc(C)cc(OCC(=O)NCCc2nc3ccccc3[nH]2)c1,inactive: 5.76%
22,COc1ccc(-c2cc(C(C)=O)c(C)n2CCC(=O)NCc2ccccc2OC)cc1,inactive: 7.74%
23,Cc1nn(-c2ccccc2)c(OC(=O)C(C)C)c1Sc1ccccc1,inactive: -1.61%
24,Brc1cccc(CNCCSc2nnnn2-c2ccccc2)c1,inactive: 6.53%

row,Compound,"activity change, negative = cytotoxicity"
1,CCc1ccccc1N(C)C(=O)Cc1c(C(=O)O)c(C)cn1C,inactive: -1.4%
2,COc1ccc(Cn2c(SCc3ccc(C(=O)NC4CCCC4)cc3)nc3ccncc32)cc1,inactive: 4.51%
3,CCOC(=O)c1c(C)oc2ncnc(N3CCN(c4ccccc4OC)CC3)c12,inactive: 7.69%
4,O=C(COc1ccc2oc3c(c2c1)CCCC3)Nc1ccc(Br)cc1,inactive: 22.2%
5,COC(=O)c1cccc(-n2c(CCC(=O)O)ccc2-c2ccc(OC)cc2)c1,inactive: -22.2%
6,Cc1ccc(Cl)cc1NC(=O)C(C)n1nnc2sc(-c3ccccc3)cc2c1=O (stereo unspecified),inactive: 3.36%
7,COc1cccc(CNC(=O)CCc2cn(Cc3ccccc3Cl)c3ccccc23)c1,inactive: -23%
8,CCCN1CCN(CCNC(=O)Nc2ccc(OC)cc2OC)CC1,inactive: 10.4%
9,CCc1ccc(C(=O)c2cn(CC(=O)Nc3ccc(F)cc3)c3ccc(OC)cc3c2=O)cc1,inactive: 0.14%
10,CC(=O)N1CCN(c2csc3ccc(F)cc3c2=O)CC1,inactive: 4.63%
11,COc1ccc(NC(=O)Cn2c(=O)n(C(C)C)c(=O)c3oc4ccccc4c32)cc1Cl,inactive: -10.1%
12,Cc1ccccc1NC(=O)CSc1nc(-c2ccccc2C)nc2cc(=O)[nH]n12,inactive: -16.9%
13,COc1ccccc1N(CC(=O)NCCSCc1ccccc1)S(=O)(=O)c1ccc(C)cc1,inactive: 15.5%
14,COCCNC(=O)Cn1nc(N2CCN(c3ccccc3OC)CC2)ccc1=O,inactive: 0.37%
15,CCOc1ccc(NC(=O)N2CCN(S(=O)(=O)c3ccc4c(ccn4C)c3)CC2)cc1,inactive: -0.419%
16,Cc1ccc(N(CC(=O)NCc2ccc(Cl)cc2)S(=O)(=O)N(C)C)cc1,inactive: 13.9%
17,COc1ccc(NC(=O)CSc2nc(-c3ccc(OC)cc3)[nH]c2-c2ccc(OC)cc2)cc1,inactive: 2.56%
18,Cc1ccc(C(=O)Nc2cccc(-c3nc4cccnc4s3)c2C)cc1,inactive: -23.5%
19,Cc1cccc(CN2C(=O)c3ccccc3S(=O)(=O)c3ccc(C(=O)NCCC4=CCCCC4)cc32)c1,inactive: 12.7%
20,COc1ccc(-c2cc(OC(=O)c3ccc(Cl)cc3)c3c(C)oc(C)c3c(=O)c2)cc1,inactive: -18.1%
21,COc1ccc(-c2nc3ccccc3s2)cc1NC(=O)COc1ccc(C)cc1,inactive: -6.98%
22,CCOc1ccc(NC(=O)CSc2nccn2Cc2ccco2)cc1,inactive: 17.9%
23,COc1ccc(NC(=O)c2cc3nc(-c4ccc(C)c(C)c4)cc(C(F)(F)F)n3n2)cc1,inactive: 17%
24,CCc1ccccc1NC(=O)c1ccc2c(O)c(S(=O)(=O)c3ccccc3)c(=O)[nH]c2c1,inactive: 1.65%
